# Measurements reported in PubChem BioAssay (NCATS).
# Some of the results follow. Shown are side measurements of this screen, not its main read-out; they come without a call. For some assays here: Most of these compounds were active or inconclusive in the main read-out, so they are no random draw. Words in brackets tell the shape of the fitted curve; partial curves, single points and poor fits give uncertain potencies.
# What was measured:
# [1] = qHTS drug screen for cell cycle checkpoint inhibitors in PARPi-resistant BRCA-mutant ovarian cancer cell lines. (AID 1963452); conditions: PEO1/OlaR viability, CellTiter-Glo luminescence, 96 h
# Procedure, shortened: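 PEO1, PEO4 and PEO1/OlaR ovarian cancer cells, 600 per well, exposed 96 h at 37C to a dilution series. Viability read by CellTiter-Glo luminescence, normalized to DMSO and empty wells; activity summarized as Z-AUC.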
# [2] = qHTS for identification of novel therapeutic agents for treatment of microphthalmiaassociated transcription factor (MiT) renal cell carcinoma (RCC) (AID 1963991); conditions: CellTiter-Glo, 48 h; for z-score: stronger effect = lower value
# Procedure, shortened: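 Three TFE3-fusion RCC cell lines (UOK109, UOK124, UOK145), 500 cells/well, were exposed to the 1912-compound MIPE 4.0 library for 48 hours at 37 C. Viability was read by CellTiter-Glo luminescence, normalised to DMSO (100%) and empty wells (0%), with 11-concentration curve fits.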
# [3] = measured here: PEO1 parental viability
# [4] = TFE3-RCC UOK109 viability, measured here: UOK109 Z-AUC
# [5] = TFE3-RCC viability, measured here: UOK124 Z-AUC
# [6] = TFE3-RCC viability, measured here: UOK124 cell viability
# [7] = TFE3-RCC viability, measured here: UOK145 Z-AUC
# [8] = TFE3-RCC viability, measured here: UOK145 cell viability
# Tags give direction and shape of the fitted curve.
Compound,"AC50 [1, 3]",AC50 ([1]; measured here: PEO4 viability),"z-score [2, 4]","z-score [2, 5]","AC50 [2, 6]","z-score [2, 7]","AC50 [2, 8]"
CC(C)NC[C@@H](C(=O)N1CCN(c2ncnc3c2[C@H](C)C[C@H]3O)CC1)c1ccc(Cl)cc1,"9.77 µM [falling, partial curve, poor fit]","7.76 µM [falling, partial curve, poor fit]",-0.139,-1.1,"23.5 µM [falling, partial curve]",0.0641,"14.8 µM [falling, partial curve]"
Cn1cc(-c2[nH]c3cc(NC(=O)[C@H](N)C4CCCCC4)cc4c3c2C=NNC4=O)cn1,"1.23 µM [falling, full curve]","1.23 µM [falling, full curve]",-0.119,-0.638,"4.69 µM [falling, full curve]",-0.543,"5.9 µM [falling, full curve]"
NC(=O)N1CCC(CC(=O)N2CCC([C@H]3c4ncc(Br)cc4CCc4cc(Cl)cc(Br)c43)CC2)CC1,"13.8 µM [falling, partial curve]","19.5 µM [falling, partial curve]",-0.202,-0.234,"23.5 µM [falling, partial curve]",0.303,"20.9 µM [falling, partial curve]"
CN1CCN(c2cc(C(=O)Nc3ccc4c(c3)-c3c(c(C(N)=O)nn3-c3ccc(F)cc3)CC4)c(Cl)cn2)CC1,"24.5 µM [falling, single point]","19.5 µM [falling, single point]",-1.15,-0.0695,"18.7 µM [falling, partial curve]",-0.664,"16.6 µM [falling, partial curve]"
O=C(CCCCCCNC(=O)c1cnc(N(c2ccccc2)c2ccccc2)nc1)NO,"17.4 µM [falling, partial curve]","17.4 µM [falling, partial curve]",0.374,-3,"23.5 µM [falling, partial curve]",0.509,"13.2 µM [falling, partial curve]"
CCc1cccc(CC)c1NC(=O)N1Cc2[nH]nc(NC(=O)c3ccc(N4CCN(C)CC4)cc3)c2C1,"9.77 µM [falling, partial curve]","0.549 µM [falling, full curve]",0.893,-0.11,"14.8 µM [falling, partial curve]",0.422,"26.4 µM [falling, single point]"
COc1cccc2nc(-c3cccs3)nc(NN3C(=O)C=C(C)C3=O)c12,"0.616 µM [falling, full curve]","0.549 µM [falling, full curve]",-0.27,-1.07,"2.96 µM [falling, full curve]",-1.42,"2.64 µM [falling, full curve]"
c1nc2nc(Nc3ccc(N4CCOCC4)cc3)nc(NC3CCCCC3)c2[nH]1,"8.71 µM [falling, partial curve]","7.76 µM [falling, partial curve, poor fit]",-0.216,0.126,"18.7 µM [falling, partial curve]",0.0537,"20.9 µM [falling, partial curve]"
OCCNC1CCCc2c1[nH]c1ccc(-c3ccccc3)cc21 (stereo unspecified),"19.5 µM [falling, partial curve]","13.8 µM [falling, partial curve]",0.0329,-0.532,"18.7 µM [falling, partial curve]",1.1,"37.2 µM [falling, partial curve, poor fit]"
CC(C)(N)c1ccc(-c2nc3ccccc3nc2-c2ccccc2)cc1,"15.5 µM [falling, single point]","17.4 µM [falling, single point]",-0.731,-1.21,"29.6 µM [falling, partial curve]",-0.04,"18.7 µM [falling, partial curve]"
Cn1c(Nc2ccc(C(F)(F)F)cc2)nc2cc(Oc3ccnc(-c4ncc(C(F)(F)F)[nH]4)c3)ccc21,"6.92 µM [falling, partial curve]","1.38 µM [falling, full curve]",-0.834,-0.0769,"14.8 µM [falling, partial curve]",-1.12,"1.32 µM [falling, full curve]"
C=CC(=O)Nc1cccc(Sc2nc(Nc3ccc(N4CCN(C)CC4)cc3)ncc2Cl)c1,"8.71 µM [falling, partial curve]","4.9 µM [falling, partial curve]",-1.78,-0.532,"37.2 µM [falling, single point]",-0.258,"37.2 µM [falling, single point]"
O=C(NC1CCNCC1)c1[nH]ncc1NC(=O)c1c(Cl)cccc1Cl,"0.692 µM [falling, full curve]","0.436 µM [falling, full curve]",-0.835,-0.45,"1.48 µM [falling, full curve]",-1.27,"0.935 µM [falling, full curve]"
Cc1cccc(Nc2nc(N[C@@H]3CCCC[C@H]3N)ncc2C(N)=O)c1,"19.5 µM [falling, partial curve, poor fit]","15.5 µM [falling, single point]",-1.4,-0.426,"23.5 µM [falling, partial curve]",-0.472,"10.5 µM [falling, partial curve]"
O=C(Nc1nc2cccc(-c3ccc(CN4CCS(=O)(=O)CC4)cc3)n2n1)C1CC1,"24.5 µM [falling, single point]","24.5 µM [falling, single point]",0.804,-0.0758,"33.2 µM [falling, partial curve, poor fit]",0.222,"23.5 µM [falling, single point]"
C=C1C(=O)[C@@]23C(CC[C@@H]1[C@H]2O)[C@@]12CO[C@]3(O)[C@@H](O)[C@@H]1C(C)(C)CC[C@@H]2O (stereo partly specified),"24.5 µM [falling, single point]","24.5 µM [falling, single point]",0.26,0.264,"29.6 µM [falling, single point]",-1.07,"14.8 µM [falling, partial curve]"
NC(=NCCCCCCN=C(N)N=C(N)Nc1ccc(Cl)cc1)N=C(N)Nc1ccc(Cl)cc1,"12.3 µM [falling, partial curve]","7.76 µM [falling, partial curve]",-0.41,0.289,"18.7 µM [falling, partial curve]",-0.267,"18.7 µM [falling, partial curve]"
COC(=O)Nc1ccc(-c2nc(N3CCOCC3)c3cnn(C4CCN(Cc5cccnc5)CC4)c3n2)cc1,"6.16 µM [falling, partial curve]","4.9 µM [falling, partial curve]",-0.768,-0.382,"5.9 µM [falling, partial curve]",-1.49,"1.05 µM [falling, partial curve]"
Cc1csc(-c2nnc(Nc3ccc(Oc4ncccc4-c4ccnc(N)n4)cc3)c3ccccc23)c1,"5.49 µM [falling, partial curve]","4.9 µM [falling, partial curve, poor fit]",0.24,-0.0882,"23.5 µM [falling, partial curve, poor fit]",-0.0777,"20.9 µM [falling, partial curve]"
Oc1cc(-c2nc(-c3ccccc3)[nH]c2-c2ccncc2)ccc1Cl,"17.4 µM [falling, partial curve]","7.76 µM [falling, partial curve]",-0.961,-0.294,"16.6 µM [falling, partial curve]",0.394,"16.6 µM [falling, partial curve]"
Oc1ccc(C2=Cc3ccc(O)cc3OC2)cc1,"12.3 µM [falling, partial curve]","11 µM [falling, partial curve]",0.417,0.205,"9.35 µM [falling, partial curve]",0.572,"16.6 µM [falling, partial curve]"
CO[C@@H](C(=O)N1Cc2[nH]nc(NC(=O)c3ccc(N4CCN(C)CC4)cc3)c2C1)c1ccccc1,"3.09 µM [falling, full curve]","3.89 µM [falling, full curve, poor fit]",0.0191,-0.402,"8.33 µM [falling, partial curve]",-0.0232,"26.4 µM [falling, single point]"
FC(F)(F)c1ccc(Nc2nc3ccc(Oc4ccnc(-c5ncc(C(F)(F)F)[nH]5)c4)cc3[nH]2)cc1,"19.5 µM [falling, single point]","6.92 µM [falling, partial curve]",0.454,-0.0691,"11.8 µM [falling, partial curve]",-0.276,"14.8 µM [falling, partial curve]"
